# Results as given in PubChem BioAssay AID360 (National Center for Advancing Translational Sciences (NCATS), 2006).
# The whole screen tested about 48,000 compounds, of which about 550 (1.1%) were called active. About 4% were inconclusive and are not listed. No stated cut-off is given here; in the data, active means potency below about 15 µM; inconclusive means mostly about 16 µM to 33 µM; inactive means weaker than that. This is one part of the list.
# Target: Lysosomal acid glucosylceramidase (Homo sapiens) (UniProt P04062)
# Test: Glucocerebrosidase;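 further: the screen sought inhibitors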
# Conditions: purified enzyme, resorufin glucoside fluorescence (screen aimed at inhibitors), 20 min
# Method in brief: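 Compounds titrated against 0.2 nM normal enzyme, 30 uM resorufin beta-D-glucopyranoside substrate, citrate/phosphate buffer with taurocholate and tween-20, pH 5.9. Reaction ran 20 min at room temperature; fluorescence (Ex 548/Em 600) gave AC50.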
# Potency means the concentration at half of the fitted maximal effect.
# Chain of UniProt P04062 (P04062 whole entry, looked up): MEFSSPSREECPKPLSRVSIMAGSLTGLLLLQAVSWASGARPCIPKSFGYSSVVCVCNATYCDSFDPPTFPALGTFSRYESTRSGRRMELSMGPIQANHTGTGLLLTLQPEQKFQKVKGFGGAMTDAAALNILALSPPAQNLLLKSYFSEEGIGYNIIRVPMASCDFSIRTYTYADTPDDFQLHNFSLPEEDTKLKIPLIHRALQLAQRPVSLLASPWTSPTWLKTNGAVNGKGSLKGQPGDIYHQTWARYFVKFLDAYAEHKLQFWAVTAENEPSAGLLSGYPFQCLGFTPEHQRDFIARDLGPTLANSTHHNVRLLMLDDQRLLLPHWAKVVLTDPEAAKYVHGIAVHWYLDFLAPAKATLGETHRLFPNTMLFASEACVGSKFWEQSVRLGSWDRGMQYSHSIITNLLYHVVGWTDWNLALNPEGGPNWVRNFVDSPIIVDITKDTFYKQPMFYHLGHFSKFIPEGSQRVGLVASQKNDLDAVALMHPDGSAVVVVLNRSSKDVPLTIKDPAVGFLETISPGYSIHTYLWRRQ
row,Compound,Potency
1,CCN1c2nc3ccccn3c(=O)c2CC2(C(=O)N(C)C(=O)N(C)C2=O)C1C (stereo unspecified),inactive: > 76.9 µM
2,O=C(C(Cc1ccccc1)NS(=O)(=O)c1ccc(F)cc1)N1CCC2(CC1)OCCO2 (stereo unspecified),inactive: > 76.9 µM
3,O=C(C1CCN(S(=O)(=O)N2CCOCC2)CC1)N1CCC2(CC1)OCCO2,inactive: > 76.9 µM
4,CC(=NCCC1=CCCCC1)c1c(O)[nH]c(=O)[nH]c1=O,inactive: > 76.9 µM
5,COc1ccc(OC)c(-n2c(O)c(C=NCc3ccc4c(c3)OCO4)c(=O)[nH]c2=O)c1,inactive: > 76.9 µM
6,CCCCn1c(O)c(C(C)=NCCCN(CC)CC)c(=O)[nH]c1=O,inactive: > 76.9 µM
7,O=C1NC(=O)C2(Cc3ccccc3N3CCCC32)C(=O)N1c1cccc(Cl)c1 (stereo unspecified),inactive: > 76.9 µM
8,O=c1[nH]c(=O)n(Cc2ccc(F)cc2)c(O)c1C=NCCCN1CCOCC1,inactive: > 76.9 µM
9,O=c1[nH]c(=O)n(CCC2=CCCCC2)c(O)c1C=NCc1cccnc1,inactive: > 76.9 µM
10,CCOc1cccc(N2C(=O)CC(=O)NC2=O)c1,inactive: > 76.9 µM
11,O=C1NC(=O)C(CCc2ccncc2)(c2ccccc2)C(=O)N1,inactive: > 76.9 µM
12,Cc1ccc(C2SCC(=O)Nc3c2c(=O)[nH]n3C2CCOC(C)(C)C2)cc1 (stereo unspecified),inactive: > 76.9 µM
13,Cc1cc(N2CCOCC2)nc2ccc(NC(=O)CCC(=O)N3CCC4(CC3)OCCO4)cc12,active: 4.68 µM
14,O=c1c2ccccc2nc(N2CCCC2)n1-c1ccc(Cl)cc1,inactive: > 76.9 µM
15,CC(=NCCN1CCCCC1)c1c(O)n(Cc2ccccc2)c(=O)[nH]c1=O,inactive: > 76.9 µM
16,CCC(=O)N1CC(=O)Nc2ccc(Cl)cc2C1c1ccc(F)cc1 (stereo unspecified),inactive: > 76.9 µM
17,O=S(=O)(c1ccc(Cl)cc1)N1CN2CCN(C2)C1,inactive: > 76.9 µM
18,C(#CCN1CCOCC1)COC/C=C/c1ccccc1,inactive: > 76.9 µM
19,Cc1cccc(CN(C)C)c1OC(=O)N(C)C,inactive: > 76.9 µM

row,Compound,Potency
1,Cc1cc(N2C(=O)C3CCCN3C2c2cccc(Cl)c2)no1 (stereo unspecified),inactive: > 76.9 µM
2,CCOC(=O)C1(c2ccccc2)CCN(Cc2cccc(C(=O)O)c2)CC1,inactive: > 76.9 µM
3,CCNCC1(c2ccc(OC)c(OC)c2)CCCC1,inactive: > 76.9 µM
4,C=C1N2CCC(CC2)C1(O)c1ccccc1C (stereo unspecified),inactive: > 76.9 µM
5,O=C(c1ccc(CS(=O)(=O)c2ccc(Br)cc2)o1)N1CCC2(CC1)OCCO2,inactive: > 76.9 µM
6,COc1ccc(Cn2c(N)c(C(=O)NCc3ccco3)c3nc4ccccc4nc32)cc1OC,inactive: > 76.9 µM
7,O=C(COc1ccccc1)N1CCN(CC(O)COc2ccccc2)CC1 (stereo unspecified),inactive: > 76.9 µM
8,CCOc1cc2[nH]c(=S)n(CCCC(=O)N3CCC4(CC3)OCCO4)c(=O)c2cc1OCC,inactive: > 76.9 µM
9,Cc1cc(OCC(=O)NC2CCS(=O)(=O)C2)c2c3c(c(=O)oc2c1)CCC3 (stereo unspecified),inactive: > 76.9 µM
10,CCC(=NCCO)c1c(O)n(-c2ccccc2)c(=O)[nH]c1=O,inactive: > 76.9 µM
11,CC(=O)c1ccccc1NC(=O)C1C2CCC(O2)C1C(=O)O (stereo unspecified),inactive: > 76.9 µM
12,CCOC(=O)C1C(=O)NC23CCCC2C1c1ccccc1O3 (stereo unspecified),inactive: > 76.9 µM
13,Cc1nn(-c2ccccc2)c2c1C(c1ccc3c(c1)OCO3)SCC(=O)N2 (stereo unspecified),inactive: > 76.9 µM
14,O=C(CN1C2CCC1CC(O)(c1cccnc1)C2)Nc1ccc2c(c1)OCO2 (stereo unspecified),inactive: > 76.9 µM
15,O=C(NC1(C(F)(F)F)Oc2ccc(Cl)cc2O1)N1CCC2(CC1)OCCO2 (stereo unspecified),inactive: > 76.9 µM
16,COc1cccc(-c2nc(CS(=O)CC(=O)N3CCC4(CC3)OCCO4)c(C)o2)c1 (stereo unspecified),inactive: > 76.9 µM
17,O=C(c1cc(=O)[nH]c2ccc(Br)cc12)N1CCC2(CC1)OCCO2,inactive: > 76.9 µM
18,COC(=O)N(c1ccc(OC)cc1)P1(=S)OCCC(C)O1 (stereo unspecified),inactive: > 76.9 µM
19,COc1ccc(-c2cc(C(F)(F)F)n3nc(C(=O)N4CCC5(CC4)OCCO5)cc3n2)cc1OC,inactive: > 76.9 µM

row,Compound,Potency
1,COc1ccc(N=C(C)c2c(O)n(C3CCCCC3)c(=O)[nH]c2=O)c(OC)c1,inactive: > 76.9 µM
2,Cc1ccc(OCC(=O)NCCN2CCN(C(=O)COc3ccc(C)cc3)CC2)cc1,inactive: > 76.9 µM
3,O=C(C1c2ccccc2C(=O)N2CCc3ccccc3C12)N1CCC2(CC1)OCCO2 (stereo unspecified),inactive: > 76.9 µM
4,CC(C)(C)n1c(O)c(C=Nc2ccc3c(c2)CCC3)c(=O)[nH]c1=O,active: 10.9 µM
5,CCCCn1c(O)c(C(C)=NCCCN(C)C)c(=O)[nH]c1=O,inactive: > 76.9 µM
6,O=C(CCn1c(=O)oc2ccccc21)N1CCC2(CC1)OCCO2,inactive: > 76.9 µM
7,CC(C)(C)c1ccc(O)c(CN2CCN(c3ccccc3)CC2)c1,inactive: > 76.9 µM
8,Cc1cc(NC(=O)CCC(=O)N2CCC3(CC2)OCCO3)no1,inactive: > 76.9 µM
9,CSc1ccc(CNC2CN3CCC2CC3)cc1 (stereo unspecified),inactive: > 76.9 µM
10,N=C1C(c2ccccc2)=C(O)CN1Cc1ccco1,inactive: > 76.9 µM
11,CC(C)C1(C)N=C(c2nc3ccccc3cc2C(=O)O)NC1=O (stereo unspecified),inactive: > 76.9 µM
12,Cn1ncnc2c(=O)n(C)c(=O)nc1-2,inactive: > 76.9 µM
13,CC(Cc1ccccc1)[n+]1cc(/N=C(\[O-])N(C)C)on1 (stereo unspecified),inactive: > 76.9 µM
14,Cc1ccc2c(c1)CC1(CN2C)C(=O)NC(=O)N(CCC2=CCCCC2)C1=O (stereo unspecified),inactive: > 76.9 µM
15,C[C@H]1CCC[C@H](O)CCCCCc2cc(O)cc(O)c2C(=O)O1,inactive: > 76.9 µM
16,O=C1C2CCCN2C(c2ccccc2)N1c1ccccn1 (stereo unspecified),inactive: > 76.9 µM
17,CC(=O)C1C2c3ccccc3OC1(C)N=c1s/c(=C/c3cn(C)nc3C)c(=O)n12 (stereo unspecified),inactive: > 76.9 µM
18,COC(=O)c1cc(COc2cc(C)cc3oc(=O)c4c(c23)CCC4)c(C)o1,inactive: > 76.9 µM
